Source: the supplement of paper PMC3334620
The full ranking holds about 33,000 sequences; the median of “E-score (-0.5 to 0.5)” is about -0.054, and the highest 2% start at about 0.39. This is one part of the list.

Molecular target: Ylr278c (UniProt Q05854)
Experiment: PBM E-score (8-mer binding enrichment) (E-score (-0.5 to 0.5)); higher = stronger / more preferred TF binding; most listed sequences are background and not binding sites
Conditions: protein concentration: 200 nM; construct: GST-DNA-binding domain
Description: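 Universal 'all 10-mer' protein binding microarrays (Agilent AMADID 015681) probed with GST-tagged S. cerevisiae TFs (full-length or DBD) made by in vitro transcription/translation (PURExpress), about 100-200 nM. Bound TF was detected with fluorescent anti-GST. Each ungapped 8-mer (which stands for itself and its reverse complement) is scored by the PBM enrichment score (E-score), a modified Wilcoxon-Mann-Whitney statistic from -0.5 to +0.5, computed with the Universal PBM Analysis Suite. Scale: above 0.35 generally sequence-specific binding.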

Sequence | PBM E-score
AGGGTGGG | -0.00128
ACGCGTGC | 0.0415
CATGTTAG | -0.305
ATGATTTG | -0.109
AGCCGGCA | 0.33
GCACGTCA | -0.16
CCTACAAC | -0.135
ATCACGTA | -0.251
GCCACACC | -0.0734
ATTTGTAG | -0.189
AAATTGGC | -0.0165
AACGGCTG | -0.0556
CCATACAC | -0.0289
AGCGCGAG | -0.103
AAGCCACG | -0.0652
CGAGATAG | -0.112
TAATCCGA | 0.359
CTTAAAAG | -0.255
ATTCGCAG | 0.0812
ACAAGGAG | -0.00099
AAGTTAGA | -0.0698
ACAAGATG | -0.0994
CCCTCCAA | -0.119
ACTATCTG | -0.347
AAGTGCAT | -0.136

Sequence | PBM E-score
AGGCTCAT | -0.112
ACCAGAAA | 0.00196
TCGAAGAA | -0.0929
ACAGAAAT | -0.148
ACCTGTAA | -0.12
CCCAGTAA | -0.082
GCGTTAAC | 0.00826
CTTTATGC | -0.05
ACATCGAG | -0.288
TTGTAAAA | -0.0868
AGCGAATC | 0.0435
GATACTCC | 0.189
GCCTAGAC | -0.0713
CAGTATAA | -0.126
AAACAGTC | -0.302
TCGTTTCA | 0.0509
CGAGTCGA | -0.126
ACATTGCC | -0.152
CGGGAGAG | 0.108
GATACCAA | 0.0152
CTTGACGA | -0.164
CTCGCAAC | -0.123
GCCTACGC | -0.221
AATAATAG | -0.0615
CATCGCGC | 0.1

Sequence | PBM E-score
AAAGTATG | -0.0796
ACGTGGTA | -0.189
CAAAAAAG | -0.0536
ATTAATCC | 0.239
CCCACGCA | -0.0116
TCTGCTAA | -0.193
ACGTGGTC | -0.271
AGTTAATG | -0.17
ACTGGATA | 0.0455
CTTGCTAC | -0.143
ACACTTAA | -0.112
AACCCCGT | 0.381
ATGTAGGG | 0.111
TAGAGATA | -0.07
CCGACGTC | 0.341
CTATTCTC | 0.0934
CTGGGCAC | -0.183
CATACTAA | -0.0312
ACTGATAA | -0.075
ACTCCTCT | -0.0377
CGGCTTAC | 0.179
AAGGAAAT | -0.187
ATCTGTCC | 0.0882
CGCAGCAG | 0.017
GTGCCGAA | 0.241

Sequence | PBM E-score
AGGCAGGA | -0.216
AAGAACAG | -0.212
AGTTGTAC | -0.00525
CGAGAGTC | -0.0863
CAAAGAAG | -0.00668
CCATGGAG | -0.194
GACAGCAC | 0.151
AGCGGGTC | 0.0309
GACAGAAA | 0.0117
AGGAGGGG | -0.21
GCACATTA | -0.0892
AACTCGCA | -0.364
AAATTGAA | -0.259
CTCACGAA | -0.209
CCTAGCCA | -0.288
ATATGGGA | -0.0358
AAGAGAAC | -0.0874
ACCACTAA | -0.0375
ACGACAAT | 0.0833
AAGGTGGT | -0.0094
CGAACAAG | 0.0603
ATTAGAGA | -0.225
GCATGATA | -0.063
CCAGTCAG | -0.19
AGTGTGTC | -0.198

Sequence | PBM E-score
ACACCCGT | -0.106
GTCCGAAA | 0.426
CGCAAGGA | -0.0117
GGGCTATA | -0.0939
CGCGGAGC | 0.41
CATAGTGC | -0.105
GGTTTGAA | -0.0015
AAGTTAGC | -0.114
ATATTCCG | 0.43
TGTGCACA | -0.22
CAACGTAG | -0.188
ATACGACG | 0.0511
GCAGACGA | -0.119
CCGTTAGA | 0.231
GCGGCACC | 0.223
CGCTCTTA | 0.114
CTGACCCA | -0.26
CCCGTTGC | -0.0717
GCTGCGAC | -0.216
GCAAGTTA | -0.0274
ACCGCACT | 0.132
CCTATTTA | -0.0606
AGGAACCC | 0.00516
AATAACAG | -0.0964
CAACAGGA | -0.195

Sequence | PBM E-score
ATACCCGC | 0.226
CTACGGGA | 0.172
AGTCGAAG | -0.259
ACCTCGCT | -0.0554
GTTCGAAC | -0.0286
CTTAAGGA | -0.232
ATGCTCTC | -0.115
ACGTGGCG | 0.0141
TATATAGA | -0.0873
AGGTGCGG | 0.231
GGTGCACA | -0.128
ATCGAAAG | -0.0309
AAACATTT | -0.0935
AAGACAGA | -0.0502
AGGCCGCG | 0.141
CAAACTCG | 0.0627
AGTATGAG | -0.0996
CGTTAGAC | -0.0149
ATTCGCAC | 0.0877
GATAGAGA | -0.143
ACCGGAAT | 0.389
GAACGGAA | 0.32
CAAATGAG | -0.178
AGCCCGTC | -0.0585
AAAACGAA | 0.0564

Sequence | PBM E-score
CGGATGCC | 0.156
AATATTGG | -0.0777
AATGGTTG | 0.0204
GCCACCCC | -0.0819
ACAGACGT | -0.0641
CACATATA | -0.0871
CATTGATA | 0.0385
TGAAGTCA | -0.0781
CCCTGGAC | -0.177
GCCTATTA | -0.101
CACGACAG | -0.134
CATGAACA | -0.165
AATTCTCC | 0.407
AACAATGC | -0.0737
TCTCCACA | -0.14
CACTGCGG | 0.111
CAGAGGCC | -0.235
GTATGGAC | 0.0892
GCGCACGA | 0.0451
GGATATCA | 0.166
AAGACCCT | -0.263
AAGGACCC | -0.00784
